From PubChem BioAssay AID1745853 (National Center for Advancing Translational Sciences (NCATS), 2022)
The other results are listed elsewhere or left out. The main result of the screen is listed elsewhere. These columns were measured beside it and carry no call.

Experiments:
Experiment in all cases: Primary Screen for Target Class Profiling of Small Molecule Inhibitors of Methyltransferases
[1] = target: Glycine N-methyltransferase (Homo sapiens) (UniProt Q14749); details: purified enzyme, MTase-Glo SAH luminescence; measured here: GNMT inhibition; at 40 µM; stronger effect = lower value
Procedure, shortened: (§1)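 Each enzyme was reacted with SAM and its substrate, with compounds tested once at 40 uM; SAH formed was read by MTase-Glo luminescence.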

[2] = target: Guanidinoacetate N-methyltransferase (Homo sapiens) (UniProt Q14353); details: purified enzyme, MTase-Glo SAH luminescence; measured here: GAMT inhibition; at 40 µM; stronger effect = lower value
Procedure, shortened: as §1

[3] = target: Histamine N-methyltransferase (Homo sapiens) (UniProt P50135); details: purified enzyme, MTase-Glo SAH luminescence; measured here: HNMT inhibition; at 40 µM; stronger effect = lower value
Procedure, shortened: as §1

[4] = target: Nicotinamide N-methyltransferase (Homo sapiens) (UniProt P40261); details: purified enzyme, MTase-Glo SAH luminescence; measured here: NNMT inhibition; at 40 µM; stronger effect = lower value
Procedure, shortened: as §1

[5] = target: Phenylethanolamine N-methyltransferase (Homo sapiens) (UniProt P11086); details: purified enzyme, MTase-Glo SAH luminescence; measured here: PNMT inhibition; at 40 µM; stronger effect = lower value
Procedure, shortened: as §1
% is set by controls: 0 for no effect and ±100 for the full control effect.

Row | SMILES | activity change, negative = inhibition [1] [%] | activity change, negative = inhibition [2] [%] | activity change, negative = inhibition [3] [%] | activity change, negative = inhibition [4] [%] | activity change, negative = inhibition [5] [%]
1 | Cc1n[nH]c(C)c1CNC(=O)C12CCCC=C1N(Cc1ccccc1)C(=O)CC2 (stereo not drawn) | -11.4 | -14.9 | -5.87 | -13.3 | -7.08
2 | O=C(NCCn1ccnc1-c1cc2n(n1)CCCNC2)c1ccncc1 | -0.399 | 1.58 | 1.16 | -0.673 | -0.173
3 | Cc1ccccc1CN1C(=O)c2cc3ccccc3n2CC1(C)C(=O)NC1CCCCC1 (stereo not drawn) | 0.184 | 4.08 | 6.94 | 4.92 | 0.993
4 | COCCn1c(C)cnc1CC1CCN(C(=O)c2c[nH]c3ccccc23)CC1 | -4.17 | -2.7 | -10.7 | -6.53 | 0.987
5 | Cc1ccc(Cn2c(=O)c3ccccc3n3c(=O)n(Cc4ccccc4Cl)nc23)cc1 | 5.58 | 2.8 | 5.6 | 6.82 | 3.88
6 | Cc1nn2c(SCC(=O)Nc3ccc(C(C)C)cc3)nnc2[nH]c1=O | -0.533 | 0 | -2.5 | -5.46 | -3.62
7 | COc1ccc(CNC(=O)CCc2nnc3n(Cc4ccccc4)c(=O)c4ccccc4n23)cc1 | -8.86 | 0.125 | 10.4 | 12.5 | 3.56
8 | O=C(/C=C/c1ccc(O)c(O)c1)OC[C@H]1O[C@@H](OC2CCCCC2O)[C@H](O)[C@@H](O)[C@@H]1O (stereo partly drawn) | 0 | -0.183 | -0.367 | -10.8 | 2.33
9 | CC1(C)CCC2(C(=O)OC3OC(CO)C(O)C(O)C3O)CCC3(C)C(=CCC4C5(C)CCC(OC6OC(C(=O)O)C(OC7OC(CO)C(O)C(O)C7O)C(OC7OC(CO)C(O)C(O)C7O)C6O)C(C)(C)C5CCC43C)C2C1 (stereo not drawn) | 0.458 | 3.56 | 8.16 | -9.11 | 0.701
10 | CCOc1cc(=O)n2c(c1C(=O)Nc1cccc(C)c1)CCCC2 | -2.21 | -1.05 | -0.096 | -6.96 | -0.447
11 | CCCn1c(=O)c2ccc(C(=O)NC(C)C)cc2n2c(=O)n(Cc3cccc(OC)c3)nc12 | -1.49 | 5.89 | 5.97 | -7.78 | -0.629
12 | CNC(=O)[C@@H](Cc1ccccc1)N1CCC[C@H]1C(=O)NCC1CC1 | -0.821 | 0.462 | -0.75 | 1.42 | 2
13 | C=CC(=O)Nc1cccc(Nc2nc(Nc3ccc(NC4CN(CCF)C4)cc3OC)ncc2C(F)(F)F)c1 | -14 | -1.97 | -13.8 | -24.5 | -1.1
14 | COc1cc(/C=C\c2ccc(O)cc2)cc(OC)c1 |  | 5.52 |  | -2.25 | 4.4
15 | COCCNC(=O)c1cc2n(n1)CC(C)(C(=O)NC1CCCCC1)N(C)C2=O (stereo not drawn) | 10.6 | 0.064 | 8.43 | 12.7 | 5.2
